For 102 sequences, TetR repression strength results are on record in a collection of fitness landscapes (doi:10.1038/s41467-024-54723-y).

The full ranking holds about 18,000 sequences; the median of “TetR repression strength (sort-seq, GFP reporter)” is about 0.23, and the highest 2% start at about 0.68. The list shows a part of the results.

Chain of UniProt P04483 (P04483 whole entry): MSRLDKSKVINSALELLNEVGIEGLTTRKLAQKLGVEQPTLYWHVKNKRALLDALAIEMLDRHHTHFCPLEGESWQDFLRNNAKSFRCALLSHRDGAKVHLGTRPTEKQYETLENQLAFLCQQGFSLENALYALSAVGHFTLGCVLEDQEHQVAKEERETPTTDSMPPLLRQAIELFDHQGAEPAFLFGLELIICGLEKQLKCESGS

The test has as its target TetR (class B, Tn10) (UniProt P04483). The test can be described thus: TetR repression strength (sort-seq, GFP reporter) (relative to tetO2 = 1); higher = stronger repression. The note with it: E. coli. The method in brief:
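E. coli SIG10-MAX carried a low-copy plasmid library with eight randomized operator positions between a constitutive promoter and sfGFP, with TetR constitutively expressed. Cells grew 5 h at 37 °C in LB with 50 µg/mL chloramphenicol, then 10^6 cells were FACS-sorted into 13 fluorescence bins, each Illumina-sequenced. Repression strength is the top bin index plus one minus the read-weighted mean bin, divided by the wild-type operator value. Three independent transformations; variants with ≥30 reads in all replicates and CV ≤0.5 were averaged.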
Consider TCCCTTATAGTAGATGAGA, for which the TetR repression strength came to 0.191.

The sequence TCCCTGTCAGTCAGGGAGA came in with a TetR repression strength of 0.213.

As to TCCCTCTGAGTGATCGAGA, the TetR repression strength was 0.0564.

The sequence TCCCAGATAGTCGGGGAGA showed a TetR repression strength of 0.184.

TCCCGTTGAGTTATCGAGA: the TetR repression strength is 0.304.

Turning to TCCCGTTCAGTTGGGGAGA, the TetR repression strength came out at 0.173.

Turning to TCCCTGTCAGTAACAGAGA, the TetR repression strength was found to be 0.373.

Take TCCCGTTCAGTATGTGAGA: the TetR repression strength is 0.259.

In the case of TCCCGTCTAGTCGGGGAGA, the TetR repression strength turned out to be 0.0402.

In turn, TCCCAGTGAGTGATAGAGA had a TetR repression strength of 0.528.

Consider TCCCGGGAAGTAACAGAGA, for which the TetR repression strength was determined as 0.349.

TCCCGTTAAGTCGGCGAGA came in with a TetR repression strength of 0.0145.

In turn, TCCCGGACAGTGATGGAGA registered a TetR repression strength of 0.168.

On to TCCCGTGTAGTGTTAGAGA, for which the TetR repression strength was determined as 0.24.

Consider TCCCGATCAGTTGATGAGA, for which the TetR repression strength was found to be 0.188.

TCCCACGTAGTGGCTGAGA gave a TetR repression strength of 0.278.

The sequence TCCCAGGCAGTACCCGAGA returned a TetR repression strength of 0.223.

TCCCAATAAGTAAGTGAGA came in with a TetR repression strength of 0.311.

The sequence TCCCGAGTAGTTAATGAGA registered a TetR repression strength of 0.184.

Sequence TCCCAACGAGTAGGCGAGA came in with a TetR repression strength of 0.139.

TCCCGGCAAGTCTATGAGA: the TetR repression strength is 0.176.

TCCCGGCTAGTTATGGAGA returned a TetR repression strength of 0.111.

The sequence TCCCGCGGAGTTTATGAGA showed a TetR repression strength of 0.184.

As to TCCCGGGAAGTTCTCGAGA, the TetR repression strength was found to be 0.366.

In turn, TCCCGGACAGTGCTGGAGA displayed a TetR repression strength of 0.309.

As for TCCCATGCAGTCTGAGAGA, the TetR repression strength amounted to 0.173.

TCCCTAAAAGTGGGCGAGA: the TetR repression strength is 0.0935.

Regarding TCCCCAAGAGTTCGGGAGA, the TetR repression strength is 0.249.

In the case of TCCCAAAGAGTGTTCGAGA, the TetR repression strength was 0.322.

TCCCTAAGAGTTCGTGAGA registered a TetR repression strength of 0.287.

In turn, TCCCCAATAGTGTGGGAGA gave a TetR repression strength of 0.292.

Consider TCCCGATGAGTGTGGGAGA, for which the TetR repression strength came to 0.221.

Take TCCCTGACAGTTGGGGAGA: the TetR repression strength came out at 0.147.

As for TCCCAGGCAGTCTGCGAGA, the TetR repression strength came out at 0.363.

The sequence TCCCGGACAGTAGTGGAGA registered a TetR repression strength of 0.194.

TCCCGGTGAGTCCCGGAGA returned a TetR repression strength of 0.333.

Consider TCCCGCTAAGTAGCGGAGA, for which the TetR repression strength turned out to be 0.154.

In turn, TCCCTTGTAGTGGTGGAGA yielded a TetR repression strength of 0.228.

As for TCCCACGGAGTGACAGAGA, the TetR repression strength is 0.433.

The sequence TCCCCGCAAGTTTATGAGA gave a TetR repression strength of 0.429.

TCCCGCGAAGTTACCGAGA had a TetR repression strength of 0.0962.

Take TCCCGGTAAGTTCGCGAGA: the TetR repression strength turned out to be 0.00619.

Consider TCCCTTTGAGTTCTCGAGA, for which the TetR repression strength worked out at 0.29.

Take TCCCGCGGAGTGGTGGAGA: the TetR repression strength was determined as 0.155.

The sequence TCCCCTAGAGTGGGAGAGA had a TetR repression strength of 0.258.

For the sequence TCCCAGTTAGTGGGGGAGA, the TetR repression strength amounted to 0.317.

Consider TCCCTCAGAGTTATGGAGA, for which the TetR repression strength is 0.274.

The sequence TCCCCATGAGTCGCAGAGA showed a TetR repression strength of 0.394.

The sequence TCCCGGAGAGTGGGAGAGA returned a TetR repression strength of 0.194.

Take TCCCTTAAAGTATGCGAGA: the TetR repression strength was 0.238.

In the case of TCCCCTCGAGTCTGAGAGA, the TetR repression strength amounted to 0.89.

Turning to TCCCCCGGAGTGGGCGAGA, the TetR repression strength is 0.111.

For the sequence TCCCAGCTAGTTTGTGAGA, the TetR repression strength was found to be 0.314.

Consider TCCCAAGCAGTCTAGGAGA, for which the TetR repression strength stood at 0.119.

TCCCTGGCAGTCGGAGAGA gave a TetR repression strength of 0.194.

TCCCCTGTAGTTGGGGAGA displayed a TetR repression strength of 0.247.

Consider TCCCGGCGAGTAGCGGAGA, for which the TetR repression strength worked out at 0.129.

Turning to TCCCGAGGAGTCCAAGAGA, the TetR repression strength was 0.293.

For the sequence TCCCTCAAAGTCTAAGAGA, the TetR repression strength worked out at 0.207.

TCCCGTGGAGTGGTTGAGA had a TetR repression strength of 0.104.

In the case of TCCCGTTGAGTGCACGAGA, the TetR repression strength came out at 0.13.

With TCCCAGTAAGTAGCGGAGA, the TetR repression strength stood at 0.198.

The sequence TCCCGACCAGTCCGGGAGA registered a TetR repression strength of 0.267.

Regarding TCCCTGAGAGTGCCCGAGA, the TetR repression strength is 0.332.

With TCCCTATGAGTACCAGAGA, the TetR repression strength was 0.857.

TCCCTGGCAGTAGTTGAGA displayed a TetR repression strength of 0.12.

The sequence TCCCGCAGAGTAATTGAGA displayed a TetR repression strength of 0.329.

Sequence TCCCCCCGAGTGATTGAGA gave a TetR repression strength of 0.412.

TCCCTGACAGTCATTGAGA came in with a TetR repression strength of 0.317.

In turn, TCCCGCTGAGTGGTAGAGA showed a TetR repression strength of 0.311.

As for TCCCGATCAGTGCACGAGA, the TetR repression strength came to 0.104.

Turning to TCCCCCTGAGTGGCTGAGA, the TetR repression strength came to 0.0395.

Take TCCCGCATAGTCTTGGAGA: the TetR repression strength worked out at 0.338.

Take TCCCCGTAAGTTGAAGAGA: the TetR repression strength stood at 0.279.

On to TCCCAGGTAGTCGTGGAGA, for which the TetR repression strength turned out to be 0.323.

TCCCCTTAAGTGTAAGAGA yielded a TetR repression strength of 0.0346.

As for TCCCGTACAGTCCAGGAGA, the TetR repression strength was determined as 0.215.

On to TCCCGTGCAGTGGAGGAGA, for which the TetR repression strength is 0.133.

As to TCCCGGGGAGTTTCCGAGA, the TetR repression strength stood at 0.415.

For the sequence TCCCCATCAGTGGCTGAGA, the TetR repression strength was 0.234.

TCCCTATAAGTCCGAGAGA came in with a TetR repression strength of 0.154.

For the sequence TCCCTGTTAGTTCCCGAGA, the TetR repression strength amounted to 0.294.

For the sequence TCCCAAATAGTCATTGAGA, the TetR repression strength was 0.112.

TCCCGTGGAGTTGCAGAGA had a TetR repression strength of 0.254.

TCCCGATAAGTTAGAGAGA had a TetR repression strength of 0.279.

Sequence TCCCCCTTAGTGTAGGAGA returned a TetR repression strength of 0.288.

On to TCCCCAATAGTGTGTGAGA, for which the TetR repression strength was 0.232.

On to TCCCGAAGAGTGGATGAGA, for which the TetR repression strength was 0.192.

TCCCTCTAAGTTGGTGAGA: the TetR repression strength turned out to be 0.22.

Consider TCCCAGGGAGTGCAAGAGA, for which the TetR repression strength is 0.293.

TCCCACCAAGTGGTTGAGA returned a TetR repression strength of 0.244.

Consider TCCCGCGCAGTAAAGGAGA, for which the TetR repression strength turned out to be 0.131.

Turning to TCCCTACAAGTTAGGGAGA, the TetR repression strength turned out to be 0.034.

Sequence TCCCTCACAGTCAGCGAGA showed a TetR repression strength of 0.0204.

Turning to TCCCCGCCAGTGGGAGAGA, the TetR repression strength was found to be 0.338.

The sequence TCCCGTTGAGTTGTGGAGA came in with a TetR repression strength of 0.138.

TCCCATTAAGTGATGGAGA showed a TetR repression strength of 0.275.

TCCCGGGTAGTGGTTGAGA: the TetR repression strength is 0.291.

Sequence TCCCAAGTAGTTCGAGAGA gave a TetR repression strength of 0.192.

TCCCAATAAGTACGCGAGA: the TetR repression strength was 0.348.

TCCCCGCGAGTGGCGGAGA registered a TetR repression strength of 0.202.

Regarding TCCCCTGGAGTTTGCGAGA, the TetR repression strength was 0.627.
